The text below walks through data of PMC5062570 (Nature Communications, 2016).

Where “and” joins values, the source holds several entries; their conditions need not be identical. Identical values can stand only once. Like-named read-outs stand apart in the source and are kept apart here.

Assay [1] has as its target PF-7802-labelled proteins in ARPE-19 cells (Homo sapiens, UniProt P08670). To be noted: for Median SILAC Ratio (Heavy/Light): protein VIM Vimentin (P08670).
In assay [2] the target is PF-7802-labelled proteins in ARPE-19 cells (Homo sapiens, UniProt P35222). To be noted: protein CTNNB1 Catenin beta-1 (P35222).
Assay [3] concerns the target PF-7802-labelled proteins in ARPE-19 cells (Homo sapiens, UniProt P78527). To be noted: for Median SILAC Ratio (Heavy/Light): protein PRKDC DNA-dependent protein kinase catalytic subunit, P78527.
The target of assay [4] is PF-7802-labelled proteins in ARPE-19 cells (Homo sapiens, UniProt Q02218). To be noted: protein OGDH 2-oxoglutarate dehydrogenase, mitochondrial (Q02218); replicates in separate columns.
In assay [5] the target is PF-7802-labelled proteins in ARPE-19 cells (Homo sapiens, UniProt P17066). To be noted: for Median SILAC Ratio (Heavy/Light): protein HSPA6 Heat shock 70 kDa protein 6 (P17066), one column per replicate.
Assay [6] concerns the target PF-7802-labelled proteins in ARPE-19 cells (Homo sapiens, UniProt P10321). To be noted: protein HLA-C HLA class I histocompatibility antigen, Cw-7 alpha chain (P10321); one column per replicate.
Assay [7] deals with PF-7802-labelled proteins in ARPE-19 cells (Homo sapiens, UniProt P42704). To be noted: for Median SILAC Ratio (Heavy/Light): protein LRPPRC Leucine-rich PPR motif-containing protein, mitochondrial (P42704), replicates in separate columns.
In assay [8] the target is PF-7802-labelled proteins in ARPE-19 cells (Homo sapiens, UniProt P13667). To be noted: protein PDIA4 Protein disulfide-isomerase A4 (P13667); replicates in separate columns.
In assay [9] the target is PF-7802-labelled proteins in ARPE-19 cells (Homo sapiens, UniProt P62263). To be noted: protein RPS14 40S ribosomal protein S14, P62263.
The target in assay [10] is PF-7802-labelled proteins in ARPE-19 cells (Homo sapiens, UniProt Q15393). To be noted: SF3B3 Splicing factor 3B subunit 3 (Q15393).
The target in assay [11] is T1, PF-7802-labelled proteins in ARPE-19 cells (Homo sapiens, UniProt O75083).
T1 sequence (O75083 1-606): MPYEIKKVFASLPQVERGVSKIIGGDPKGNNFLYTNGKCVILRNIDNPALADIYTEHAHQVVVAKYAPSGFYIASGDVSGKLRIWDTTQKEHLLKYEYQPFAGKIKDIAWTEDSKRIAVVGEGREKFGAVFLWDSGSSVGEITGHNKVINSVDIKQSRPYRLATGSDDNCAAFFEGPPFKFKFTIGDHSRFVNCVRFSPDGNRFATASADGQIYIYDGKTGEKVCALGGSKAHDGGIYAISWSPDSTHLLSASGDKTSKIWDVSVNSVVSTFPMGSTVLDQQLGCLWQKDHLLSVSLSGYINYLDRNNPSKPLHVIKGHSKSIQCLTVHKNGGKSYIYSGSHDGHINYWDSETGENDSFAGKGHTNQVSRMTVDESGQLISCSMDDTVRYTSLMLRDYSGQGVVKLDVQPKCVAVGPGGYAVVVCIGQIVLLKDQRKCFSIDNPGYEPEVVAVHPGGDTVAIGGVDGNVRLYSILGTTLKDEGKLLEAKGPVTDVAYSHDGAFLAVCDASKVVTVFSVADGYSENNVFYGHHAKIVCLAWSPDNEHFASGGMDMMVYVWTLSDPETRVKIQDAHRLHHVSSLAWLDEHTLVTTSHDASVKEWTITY
To be noted: protein WDR1 WD repeat-containing protein 1 (O75083).

Assay [12] addresses T2, PF-7802-labelled proteins in ARPE-19 cells (Homo sapiens, UniProt P62258).
T2 sequence (P62258 1-255): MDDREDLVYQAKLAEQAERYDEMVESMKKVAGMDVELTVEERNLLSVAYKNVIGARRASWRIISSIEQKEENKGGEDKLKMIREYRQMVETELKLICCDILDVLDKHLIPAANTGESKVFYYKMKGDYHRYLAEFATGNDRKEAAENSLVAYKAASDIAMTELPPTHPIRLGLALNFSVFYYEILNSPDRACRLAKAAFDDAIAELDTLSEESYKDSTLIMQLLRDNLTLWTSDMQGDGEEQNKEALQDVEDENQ
To be noted: for Median SILAC Ratio (Heavy/Light): protein YWHAE 14-3-3 protein epsilon (P62258).

Assay [13] addresses PF-7802-labelled proteins in ARPE-19 cells (Homo sapiens, UniProt P52907). To be noted: protein CAPZA1 F-actin-capping protein subunit alpha-1 (P52907).
Assay [14] addresses PF-7802-labelled proteins in ARPE-19 cells (Homo sapiens, UniProt P49207). To be noted: protein RPL34 60S ribosomal protein L34, P49207.
For assay [15], the target named is PF-7802-labelled proteins in ARPE-19 cells (Homo sapiens, UniProt Q5SSJ5). To be noted: protein HP1BP3 Heterochromatin protein 1-binding protein 3 (Q5SSJ5); one column per replicate.
The target of assay [16] is T3, PF-7802-labelled proteins in ARPE-19 cells (Homo sapiens, UniProt P61981).
T3 sequence (P61981 1-247): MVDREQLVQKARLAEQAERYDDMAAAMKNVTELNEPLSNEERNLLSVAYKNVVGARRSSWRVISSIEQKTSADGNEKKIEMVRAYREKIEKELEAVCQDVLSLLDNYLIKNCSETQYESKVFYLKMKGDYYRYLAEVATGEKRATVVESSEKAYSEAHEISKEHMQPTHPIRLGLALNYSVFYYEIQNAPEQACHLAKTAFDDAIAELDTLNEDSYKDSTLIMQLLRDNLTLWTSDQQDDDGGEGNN
To be noted: for Median SILAC Ratio (Heavy/Light): protein YWHAG 14-3-3 protein gamma (P61981).

For assay [17], the target named is PF-7802-labelled proteins in ARPE-19 cells (Homo sapiens, UniProt Q15438). To be noted: protein CYTH1 Cytohesin-1 (Q15438).

Chain of UniProt P78527 (P78527 whole entry): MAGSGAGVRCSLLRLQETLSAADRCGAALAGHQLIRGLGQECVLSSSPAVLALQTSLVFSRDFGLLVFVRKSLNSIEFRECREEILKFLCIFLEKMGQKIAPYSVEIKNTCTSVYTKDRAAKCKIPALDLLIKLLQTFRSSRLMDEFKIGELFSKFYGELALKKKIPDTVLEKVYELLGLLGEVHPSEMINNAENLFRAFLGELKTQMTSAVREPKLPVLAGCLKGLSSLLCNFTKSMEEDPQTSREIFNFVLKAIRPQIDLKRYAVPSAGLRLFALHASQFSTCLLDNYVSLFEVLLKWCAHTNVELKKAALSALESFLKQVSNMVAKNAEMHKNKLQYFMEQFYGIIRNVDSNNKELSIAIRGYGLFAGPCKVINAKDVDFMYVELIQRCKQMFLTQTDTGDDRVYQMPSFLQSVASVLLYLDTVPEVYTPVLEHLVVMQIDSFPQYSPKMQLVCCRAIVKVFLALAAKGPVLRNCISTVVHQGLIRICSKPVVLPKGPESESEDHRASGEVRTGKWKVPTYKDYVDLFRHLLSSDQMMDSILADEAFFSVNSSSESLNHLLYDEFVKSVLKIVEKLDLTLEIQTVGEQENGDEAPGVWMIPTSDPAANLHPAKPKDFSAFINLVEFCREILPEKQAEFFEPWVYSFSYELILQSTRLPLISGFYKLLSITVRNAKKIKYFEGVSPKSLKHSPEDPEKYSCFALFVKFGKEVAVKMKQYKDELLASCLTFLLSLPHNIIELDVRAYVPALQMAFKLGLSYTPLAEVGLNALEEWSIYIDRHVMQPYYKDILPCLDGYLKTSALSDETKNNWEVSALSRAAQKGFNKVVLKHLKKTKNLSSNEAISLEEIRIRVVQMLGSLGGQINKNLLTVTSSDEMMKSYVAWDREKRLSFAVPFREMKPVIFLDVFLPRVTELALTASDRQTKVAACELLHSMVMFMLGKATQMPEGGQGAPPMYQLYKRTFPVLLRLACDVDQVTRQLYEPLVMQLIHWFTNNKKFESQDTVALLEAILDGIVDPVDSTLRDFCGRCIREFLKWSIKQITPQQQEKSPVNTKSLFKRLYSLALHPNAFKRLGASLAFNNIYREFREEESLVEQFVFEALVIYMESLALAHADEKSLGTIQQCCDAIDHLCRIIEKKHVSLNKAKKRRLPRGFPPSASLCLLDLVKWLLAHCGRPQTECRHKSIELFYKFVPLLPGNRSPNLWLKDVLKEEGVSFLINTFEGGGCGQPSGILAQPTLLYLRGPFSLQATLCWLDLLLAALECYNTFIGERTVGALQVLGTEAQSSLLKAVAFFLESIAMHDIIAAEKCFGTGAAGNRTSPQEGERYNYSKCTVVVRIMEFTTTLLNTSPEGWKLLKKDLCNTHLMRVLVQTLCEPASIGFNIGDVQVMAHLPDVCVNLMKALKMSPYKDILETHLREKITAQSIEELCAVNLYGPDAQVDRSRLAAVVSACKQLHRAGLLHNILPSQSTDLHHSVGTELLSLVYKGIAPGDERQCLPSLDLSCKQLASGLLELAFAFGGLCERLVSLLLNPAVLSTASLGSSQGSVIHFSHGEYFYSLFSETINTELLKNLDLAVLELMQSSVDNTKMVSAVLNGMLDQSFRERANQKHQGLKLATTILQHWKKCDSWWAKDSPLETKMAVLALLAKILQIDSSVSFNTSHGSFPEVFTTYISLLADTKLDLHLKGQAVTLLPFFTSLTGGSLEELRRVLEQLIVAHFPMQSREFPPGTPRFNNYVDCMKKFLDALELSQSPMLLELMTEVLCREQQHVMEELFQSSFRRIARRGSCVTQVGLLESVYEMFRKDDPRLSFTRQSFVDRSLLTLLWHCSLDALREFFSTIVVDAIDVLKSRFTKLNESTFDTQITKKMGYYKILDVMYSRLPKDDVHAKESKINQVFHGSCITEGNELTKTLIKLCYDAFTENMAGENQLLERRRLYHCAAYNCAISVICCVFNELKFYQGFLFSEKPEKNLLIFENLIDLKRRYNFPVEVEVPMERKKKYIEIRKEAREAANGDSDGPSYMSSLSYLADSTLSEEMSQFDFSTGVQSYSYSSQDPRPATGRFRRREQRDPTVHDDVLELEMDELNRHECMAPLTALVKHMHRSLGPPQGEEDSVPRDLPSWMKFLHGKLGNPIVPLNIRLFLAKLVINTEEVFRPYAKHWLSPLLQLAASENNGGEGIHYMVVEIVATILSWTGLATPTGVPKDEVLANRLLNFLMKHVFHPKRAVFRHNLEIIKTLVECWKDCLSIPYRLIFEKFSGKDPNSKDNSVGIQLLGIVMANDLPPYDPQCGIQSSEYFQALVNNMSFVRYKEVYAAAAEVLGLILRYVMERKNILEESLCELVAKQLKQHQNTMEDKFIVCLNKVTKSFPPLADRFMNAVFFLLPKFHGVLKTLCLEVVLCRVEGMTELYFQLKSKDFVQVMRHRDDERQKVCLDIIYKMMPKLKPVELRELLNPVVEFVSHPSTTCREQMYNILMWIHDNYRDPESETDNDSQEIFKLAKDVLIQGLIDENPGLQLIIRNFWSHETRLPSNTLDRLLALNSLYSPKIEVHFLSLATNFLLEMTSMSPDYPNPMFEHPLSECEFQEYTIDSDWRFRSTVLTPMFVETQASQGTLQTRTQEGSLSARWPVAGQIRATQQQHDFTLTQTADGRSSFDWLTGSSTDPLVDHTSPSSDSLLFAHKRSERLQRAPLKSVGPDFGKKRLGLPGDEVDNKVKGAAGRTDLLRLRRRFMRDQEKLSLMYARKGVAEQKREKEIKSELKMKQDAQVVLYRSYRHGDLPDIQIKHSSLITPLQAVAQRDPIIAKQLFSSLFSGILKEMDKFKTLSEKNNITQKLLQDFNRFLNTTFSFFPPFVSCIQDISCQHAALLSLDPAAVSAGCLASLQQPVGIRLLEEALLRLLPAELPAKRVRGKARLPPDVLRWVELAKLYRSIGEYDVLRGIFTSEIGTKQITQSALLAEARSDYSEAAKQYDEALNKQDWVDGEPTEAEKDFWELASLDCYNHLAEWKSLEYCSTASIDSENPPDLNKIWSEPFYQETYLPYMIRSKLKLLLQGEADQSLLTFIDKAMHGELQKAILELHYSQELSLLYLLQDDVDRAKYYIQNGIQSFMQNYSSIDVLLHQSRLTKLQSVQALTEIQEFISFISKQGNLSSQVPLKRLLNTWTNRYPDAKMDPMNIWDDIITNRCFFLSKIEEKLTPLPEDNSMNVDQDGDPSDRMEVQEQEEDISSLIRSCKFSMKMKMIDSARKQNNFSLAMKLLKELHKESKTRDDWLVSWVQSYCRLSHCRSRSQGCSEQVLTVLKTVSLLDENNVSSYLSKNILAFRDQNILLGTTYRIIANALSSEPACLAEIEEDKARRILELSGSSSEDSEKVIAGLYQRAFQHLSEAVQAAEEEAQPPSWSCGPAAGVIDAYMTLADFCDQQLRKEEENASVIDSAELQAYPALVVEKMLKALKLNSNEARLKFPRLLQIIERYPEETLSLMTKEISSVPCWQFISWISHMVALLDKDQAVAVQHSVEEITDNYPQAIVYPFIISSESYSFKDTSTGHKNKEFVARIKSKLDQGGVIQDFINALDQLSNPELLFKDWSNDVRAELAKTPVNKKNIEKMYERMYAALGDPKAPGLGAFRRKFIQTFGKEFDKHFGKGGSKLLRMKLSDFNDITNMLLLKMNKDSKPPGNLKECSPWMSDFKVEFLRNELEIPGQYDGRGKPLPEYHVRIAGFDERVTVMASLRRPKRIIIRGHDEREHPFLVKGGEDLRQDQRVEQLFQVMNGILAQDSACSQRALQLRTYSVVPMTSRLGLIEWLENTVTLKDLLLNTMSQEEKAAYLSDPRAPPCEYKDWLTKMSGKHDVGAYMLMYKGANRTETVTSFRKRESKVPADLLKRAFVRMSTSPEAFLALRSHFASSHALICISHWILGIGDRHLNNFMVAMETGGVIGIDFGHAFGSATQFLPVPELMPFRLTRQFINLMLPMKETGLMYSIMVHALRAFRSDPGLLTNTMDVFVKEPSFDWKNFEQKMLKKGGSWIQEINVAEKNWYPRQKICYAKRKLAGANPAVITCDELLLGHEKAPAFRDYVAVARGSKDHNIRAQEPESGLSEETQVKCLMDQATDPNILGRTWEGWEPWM
Chain of UniProt P08670 (P08670 whole entry): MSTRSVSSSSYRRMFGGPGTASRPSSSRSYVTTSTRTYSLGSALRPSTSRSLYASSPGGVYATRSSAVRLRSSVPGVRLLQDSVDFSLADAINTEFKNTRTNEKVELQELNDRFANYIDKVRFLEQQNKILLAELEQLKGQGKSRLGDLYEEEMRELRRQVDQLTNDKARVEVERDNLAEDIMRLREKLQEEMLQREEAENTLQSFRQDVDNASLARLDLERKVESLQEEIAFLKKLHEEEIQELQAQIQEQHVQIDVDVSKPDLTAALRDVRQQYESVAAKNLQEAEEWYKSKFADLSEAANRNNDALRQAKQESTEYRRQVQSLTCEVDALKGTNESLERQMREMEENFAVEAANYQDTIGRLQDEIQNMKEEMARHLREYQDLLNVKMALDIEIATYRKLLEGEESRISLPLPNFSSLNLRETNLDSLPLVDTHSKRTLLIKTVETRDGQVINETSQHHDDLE
Chain of UniProt Q5SSJ5 (Q5SSJ5 whole entry): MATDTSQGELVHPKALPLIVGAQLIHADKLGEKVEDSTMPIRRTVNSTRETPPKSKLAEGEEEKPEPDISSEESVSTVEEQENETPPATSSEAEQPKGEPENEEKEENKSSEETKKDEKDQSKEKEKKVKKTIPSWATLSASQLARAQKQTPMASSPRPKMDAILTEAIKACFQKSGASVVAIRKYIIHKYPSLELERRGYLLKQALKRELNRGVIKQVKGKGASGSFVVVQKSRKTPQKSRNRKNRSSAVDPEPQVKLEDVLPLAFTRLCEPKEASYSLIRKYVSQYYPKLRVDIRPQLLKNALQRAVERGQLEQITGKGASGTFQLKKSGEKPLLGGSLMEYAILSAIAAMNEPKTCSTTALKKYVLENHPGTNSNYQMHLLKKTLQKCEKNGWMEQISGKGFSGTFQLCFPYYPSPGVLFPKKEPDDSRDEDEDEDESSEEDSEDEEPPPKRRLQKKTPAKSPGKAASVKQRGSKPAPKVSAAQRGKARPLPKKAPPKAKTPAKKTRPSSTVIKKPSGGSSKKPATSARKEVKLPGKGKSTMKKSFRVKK

Take `CNC1CCN(C(=O)C[C@@H](Cc2ccccc2)C(=O)N[C@@H](CSC)C(=O)N[C@@H](CC2CCCCC2)[C@@H](O)C(=O)OC(C)C)CC1` [CP-108671, reference compound]: the “SILAC ratio (DMSO/CP-108671)” value is 1.00 in [1] (P08670 VIM Vimentin); 1.14 in assay [3] (P78527 PRKDC DNA-dependent protein kinase catalytic subunit); 0.70 in [5] (P17066 HSPA6 Heat shock 70 kDa protein 6); 0.98 in assay [7] (P42704 LRPPRC Leucine-rich PPR motif-containing protein, mitochondrial); 0.50 in [12] (P62258 YWHAE 14-3-3 protein epsilon); 0.41 in [16] (P61981 YWHAG 14-3-3 protein gamma). For the same molecule, the “Median SILAC Ratio (Heavy/Light)” value in assay [1] (replicate R1) was found to be 0.9991; in assay [1] (replicate R2), 1.082; in [2], 1.205; in assay [3], 0.876; in assay [4], 1.171; in [5], 1.431. In addition, the “Median SILAC Ratio (Heavy/Light)” value in assay [6] was 1.094; in [7], 1.023; in assay [8] it was 1.07; in assay [9] it was 0.9556; in [10], 0.4208; in assay [11] (replicate R1) it was 1. The “Median SILAC Ratio (Heavy/Light)” value in assay [12] (replicate R1) is given as 2.0134; in [13], 1.363; in [14], 1.66; in assay [15], 1.678; in assay [16] (replicate R1), 2.51; in assay [17] it was 1.948.

`Cc1cc([C@H]2C[C@H]3[C@@H](C)SC(N)=N[C@@]3(c3ccc(F)cc3F)CO2)on1` [PF-9283]: the “Median SILAC Ratio (Heavy/Light)” value in assay [1] (replicate R1) stood at 1.234; in [1] (replicate R2) it was 1.08; in assay [1] (replicate R3), 1.654; in assay [1] (replicate R4), 1.795; in assay [2], 1.331; in assay [3] it was 1.2187. Also, the “Median SILAC Ratio (Heavy/Light)” value is 1.344 in [4]; 1.448 in assay [5]; 0.1709 in [6]; 1.39 in [7]; 1.154 in assay [8]; 1.2146 and 0.9277 in assay [9]. Besides, the “Median SILAC Ratio (Heavy/Light)” value was 1.171 in [10]; 0.8039 in [11] (replicate R1); 1.4326 in assay [11] (replicate R3); 1.225 in assay [12] (replicate R3); 1.567 and 0.9317 in assay [13]; 1.562 in assay [14]. Further, the “Median SILAC Ratio (Heavy/Light)” value was 1.229 and 0.8745 in assay [15]; 3.224 in assay [16] (replicate R1); 1.6178 in [16] (replicate R4); 1.612 in [17].
